# Where “and” joins values, the source holds several entries; their conditions need not be identical. Equal values may be shown once. The source gives many values for each of these; only a part stands here. Toxic doses and inconclusive results are not listed.
# Test system: BDF1 mice, P388 leukemia ip, median survival T/C
# Test: NCI In Vivo Anticancer Drug Screen. Data for tumor model P388 Leukemia (intraperitoneal) in B6D2F1 (BDF1) mice
# Details: endpoint: median survival time, higher = longer survival
# Protocol: The antitumor activity of compounds was measured in mice bearing transplantable tumors. Survival or tumor size were measured and the results are expressed as the measurement made in the treated group (T) divided by the measurement made in the vehicle treated control group (C). The tumor model used in this assay is P388 Leukemia (intraperitoneal) in B6D2F1 (BDF1) mice
compound,measurement,setting,value
COc1cccc2c1C(=O)c1c(O)c3c(c(O)c1C2=O)C[C@@](O)(C(=O)CO)C[C@@H]3OC1CC(N)C(O)C(C)O1 (stereo not given in full),T/C,"dose: 0.2 mg/kg/injection, schedule: Q01DX009 (ip), vehicle: water",168 % of control
same,T/C,"dose: 0.25 mg/kg/injection, schedule: Q01DX009 (ip), vehicle: saline",158 % of control
same,T/C,"dose: 0.39 mg/kg/injection, schedule: Q01DX009 (ip), vehicle: water",184 % of control
same,T/C,"dose: 0.5 mg/kg/injection, schedule: Q03HX008 (ip), vehicle: water",177 % of control
same,T/C,"dose: 0.5 mg/kg/injection, schedule: Q06HX004 (ip), vehicle: water",163 % of control
same,T/C,"dose: 0.65 mg/kg/injection, schedule: Q01DX009 (ip), vehicle: saline",172 % of control and 183 % of control
same,T/C,"dose: 0.65 mg/kg/injection, schedule: Q03HX008 (ip), vehicle: water",155 % of control
same,T/C,"dose: 0.78 mg/kg/injection, schedule: Q01DX009 (ip), vehicle: water",166 % of control and 211 % of control
same,T/C,"dose: 0.8 mg/kg/injection, schedule: Q01DX004 (ip), vehicle: saline",169 % of control
same,T/C,"dose: 1.0 mg/kg/injection, schedule: Q01DX001 (ip), vehicle: saline",154 % of control
same,T/C,"dose: 1.0 mg/kg/injection, schedule: Q01DX004 (ip), vehicle: saline",163 % of control
same,T/C,"dose: 1.0 mg/kg/injection, schedule: Q01DX009 (ip), vehicle: saline",179 % of control
same,T/C,"dose: 1.0 mg/kg/injection, schedule: Q03HX008 (ip), vehicle: water",180 % of control
same,T/C,"dose: 1.0 mg/kg/injection, schedule: Q06HX004 (ip), vehicle: water",200 % of control
same,T/C,"dose: 1.08 mg/kg/injection, schedule: Q01DX009 (ip), vehicle: saline",172 % of control and 210 % of control
same,T/C,"dose: 1.08 mg/kg/injection, schedule: Q03HX008 (ip), vehicle: water",180 % of control
same,T/C,"dose: 1.08 mg/kg/injection, schedule: Q04DX003 (ip), vehicle: water",156 % of control
same,T/C,"dose: 1.3 mg/kg/injection, schedule: Q01DX004 (ip), vehicle: saline with Tween-80",212 % of control
same,T/C,"dose: 1.3 mg/kg/injection, schedule: Q01DX004 (ip), vehicle: saline",191 % of control and 207 % of control
same,T/C,"dose: 1.3 mg/kg/injection, schedule: Q04DX003 (ip), vehicle: saline + alcohol",198 % of control
same,T/C,"dose: 1.3 mg/kg/injection, schedule: Q04DX003 (ip), vehicle: water",194 % of control and 203 % of control
same,T/C,"dose: 1.44 mg/kg/injection, schedule: Q04DX003 (ip), vehicle: saline",203 % of control
same,T/C,"dose: 1.5 mg/kg/injection, schedule: Q01DX001 (ip), vehicle: saline",185 % of control
same,T/C,"dose: 1.5 mg/kg/injection, schedule: Q04DX003 (ip), vehicle: water",221 % of control
same,T/C,"dose: 1.6 mg/kg/injection, schedule: Q01DX004 (ip), vehicle: saline",180 % of control
same,T/C,"dose: 1.73 mg/kg/injection, schedule: Q04DX003 (ip), vehicle: water",201 % of control
same,T/C,"dose: 1.8 mg/kg/injection, schedule: Q01DX009 (ip), vehicle: saline",210 % of control
same,T/C,"dose: 1.8 mg/kg/injection, schedule: Q03HX008 (ip), vehicle: water",216 % of control
same,T/C,"dose: 2.16 mg/kg/injection, schedule: Q01DX004 (ip), vehicle: saline with Tween-80",206 % of control
same,T/C,"dose: 2.16 mg/kg/injection, schedule: Q04DX003 (ip), vehicle: saline + alcohol",189 % of control
same,T/C,"dose: 2.16 mg/kg/injection, schedule: Q04DX003 (ip), vehicle: water",219 % of control and 155 % of control
same,T/C,"dose: 2.2 mg/kg/injection, schedule: Q04DX003 (ip), vehicle: saline",200 % of control
same,T/C,"dose: 2.4 mg/kg/injection, schedule: Q04DX003 (ip), vehicle: saline",210 % of control
same,T/C,"dose: 2.88 mg/kg/injection, schedule: Q04DX003 (ip), vehicle: water",201 % of control
same,T/C,"dose: 3.0 mg/kg/injection, schedule: Q01DX001 (ip), vehicle: saline",211 % of control
same,T/C,"dose: 3.0 mg/kg/injection, schedule: Q01DX009 (ip), vehicle: saline",170 % of control
same,T/C,"dose: 3.0 mg/kg/injection, schedule: Q04DX004 (ip), vehicle: saline",169 % of control
same,T/C,"dose: 3.6 mg/kg/injection, schedule: Q01DX001 (ip), vehicle: water",204 % of control
same,T/C,"dose: 3.6 mg/kg/injection, schedule: Q04DX003 (ip), vehicle: water",165 % of control
same,T/C,"dose: 4.0 mg/kg/injection, schedule: Q04DX004 (ip), vehicle: saline",197 % of control
same,T/C,"dose: 4.4 mg/kg/injection, schedule: Q01DX001 (ip), vehicle: saline",189 % of control and 221 % of control
same,T/C,"dose: 5.0 mg/kg/injection, schedule: Q04DX003 (iv), vehicle: saline",180 % of control
same,T/C,"dose: 5.0 mg/kg/injection, schedule: Q04DX003 (sc), vehicle: saline",165 % of control
same,T/C,"dose: 5.0 mg/kg/injection, schedule: Q04DX004 (ip), vehicle: saline",189 % of control
same,T/C,"dose: 6.0 mg/kg/injection, schedule: Q01DX001 (ip), vehicle: water",207 % of control
same,T/C,"dose: 6.0 mg/kg/injection, schedule: Q04DX003 (ip), vehicle: saline",185 % of control
same,T/C,"dose: 6.0 mg/kg/injection, schedule: Q04DX003 (ip), vehicle: water",162 % of control
same,T/C,"dose: 6.33 mg/kg/injection, schedule: Q01DX001 (ip), vehicle: water",169 % of control
same,T/C,"dose: 6.6 mg/kg/injection, schedule: Q01DX001 (iv), vehicle: saline",165 % of control and 168 % of control
same,T/C,"dose: 7.5 mg/kg/injection, schedule: Q01DX001 (ip), vehicle: saline",194 % of control
same,T/C,"dose: 8.44 mg/kg/injection, schedule: Q01DX001 (ip), vehicle: water",183 % of control
same,T/C,"dose: 9.4 mg/kg/injection, schedule: Q04DX003 (ip), vehicle: saline",201 % of control
same,T/C,"dose: 9.6 mg/kg/injection, schedule: Q04DX003 (ip), vehicle: saline",220 % of control
same,T/C,"dose: 10.0 mg/kg/injection, schedule: Q01DX001 (iv), vehicle: saline",197 % of control and 210 % of control
same,T/C,"dose: 10.0 mg/kg/injection, schedule: Q01DX001 (sc), vehicle: saline",175 % of control
same,T/C,"dose: 10.0 mg/kg/injection, schedule: Q04DX003 (ip), vehicle: water",87 % of control
same,T/C,"dose: 11.25 mg/kg/injection, schedule: Q01DX001 (ip), vehicle: water",189 % of control
same,T/C,"dose: 1440.0 micrograms/kg/injection, schedule: Q04DX003 (ip), vehicle: water",163 % of control
same,T/C,"dose: 2400.0 micrograms/kg/injection, schedule: Q04DX003 (ip), vehicle: water",163 % of control
same,T/C,"dose: 4000.0 micrograms/kg/injection, schedule: Q04DX003 (ip), vehicle: water",196 % of control

# Source: PubChem BioAssay AID328 (DTP/NCI, 2004)
